Assay results from PubChem BioAssay AID220 (DTP/NCI, 2004).
Records with an inconclusive call do not appear. For part of its entries the source gives two or more results. The list is limited to them. An entry can have further records. Values that stand side by side repeat one measurement in other runs, samples, wells, individuals or studies. Starred links: 1 amine or outer side, 2 acyl side, 3 side chain; linkers in the order of their positions; H or OH if unused. Positions of bridges follow the written chain, without caps; N, C: chain ends. Non-standard residues stand in square brackets, D forms with d. Residues, ends and D or L forms follow the SMILES beside them. Chains are numbered I, II in the order given. Actinocin(9to1) = Cc1c2oc3c(C)ccc(C(=O)[*:1])c3nc-2c(C(=O)[*:2])c(N)c1=O; aThr = C[C@H](O)[C@H](N)C(=O)O; NMeV = CN[CH](C(=O)O)C(C)C; Sar = CNCC(=O)O

Test system: CD8F1 mice, subcutaneous mammary adenocarcinoma, T/C%
Test: NCI In Vivo Anticancer Drug Screen. Data for tumor model Mammary Adenocarcinoma CD8F1 (subcutaneous) in CD8F1
Settings: endpoint: median tumor weight (est.), higher = larger tumour
Protocol: The antitumor activity of compounds was measured in mice bearing transplantable tumors. Survival or tumor size were measured and the results are expressed as the measurement made in the treated group (T) divided by the measurement made in the vehicle treated control group (C). The tumor model used in this assay is Mammary Adenocarcinoma CD8F1 (subcutaneous) in CD8F1

[1] = dose: 12.5 mg/kg/injection, schedule: Q07DX005 (ip), vehicle: Klucel (hydroxypropylcellulose) (HPC)
[2] = dose: 50.0 mg/kg/injection, schedule: Q07DX005 (ip), vehicle: Klucel (hydroxypropylcellulose) (HPC)
[3] = dose: 100.0 mg/kg/injection, schedule: Q07DX005 (ip), vehicle: Klucel (hydroxypropylcellulose) (HPC)
[4] = dose: 25.0 mg/kg/injection, schedule: Q07DX005 (ip), vehicle: saline with Tween-80
[5] = dose: 50.0 mg/kg/injection, schedule: Q07DX005 (ip), vehicle: saline with Tween-80
[6] = dose: 100.0 mg/kg/injection, schedule: Q07DX005 (ip), vehicle: saline with Tween-80
[7] = dose: 200.0 mg/kg/injection, schedule: Q07DX005 (ip), vehicle: saline with Tween-80
[8] = dose: 12.5 mg/kg/injection, schedule: Q07DX005 (ip), vehicle: saline with Tween-80
[9] = dose: 50.0 mg/kg/injection, schedule: Q07DX005 (ip), vehicle: water
[10] = dose: 100.0 mg/kg/injection, schedule: Q07DX005 (ip), vehicle: water
[11] = dose: 400.0 mg/kg/injection, schedule: Q07DX005 (ip), vehicle: saline with Tween-80
[12] = dose: 50.0 mg/kg/injection, schedule: Q07DX005 (ip), vehicle: saline
[13] = dose: 100.0 mg/kg/injection, schedule: Q07DX005 (ip), vehicle: saline

`CCOC(=O)Nc1cc2c(c(N)n1)N=C(CN(C)c1ccccc1)CN2` was tested, and the T/C [1] was 55 % of control and 183 % of control.
In the case of `COc1ccc(C(N)=O)cc1N=NN(C)C`, the T/C [1] is reported as 42 % of control and 95 % of control, the T/C (dose: 25.0 mg/kg/injection, schedule: Q07DX005 (ip), vehicle: Klucel (hydroxypropylcellulose) (HPC)) is reported as 65 % of control and 158 % of control and the T/C [2] is reported as 67 % of control and 103 % of control. For the same compound, the T/C [3] was 16 % of control and 59 % of control.
With `COc1ccc([I+]c2cccc(Cl)c2)cc1Cl` the T/C (dose: 6.25 mg/kg/injection, schedule: Q07DX005 (ip), vehicle: saline with Tween-80) was 27 % of control and 200 % of control and the T/C [4] was 49 % of control and 152 % of control.
In the case of `Nc1nncs1`, the T/C (dose: 200.0 mg/kg/injection, schedule: Q07DX005 (ip), vehicle: Klucel (hydroxypropylcellulose) (HPC)) is reported as 21 % of control and 48 % of control and the T/C (dose: 800.0 mg/kg/injection, schedule: Q07DX005 (ip), vehicle: Klucel (hydroxypropylcellulose) (HPC)) is reported as 7 % of control and 63 % of control.
In the case of `N#Cc1nc(C#N)c(Sc2ccccc2)c(Sc2ccccc2)c1Sc1ccccc1`, the T/C [5] is reported as 61 % of control and 112 % of control, the T/C [6] is reported as 114 % of control and 152 % of control and the T/C [7] is reported as 54 % of control and 96 % of control.
`CC1CN1C(=O)NCCCCCCNC(=O)N1CC1C` (stereo not drawn) was tested, and the T/C (dose: 2.5 mg/kg/injection, schedule: Q07DX005 (ip), vehicle: Klucel (hydroxypropylcellulose) (HPC)) was 100 % of control and 150 % of control.
With `O=C(N/N=C\c1cc(Br)cc(Br)c1O)N/N=C/c1cc(Br)cc(Br)c1O` the T/C [8] was 96 % of control and 324 % of control, the T/C [4] was 54 % of control and 303 % of control and the T/C [6] was 67 % of control and 151 % of control.
`CN(C)N=Nc1cccc(C(N)=O)c1` was tested, and the T/C (dose: 10.0 mg/kg/injection, schedule: Q07DX005 (ip), vehicle: Klucel (hydroxypropylcellulose) (HPC)) was 51 % of control and 103 % of control, the T/C (dose: 40.0 mg/kg/injection, schedule: Q07DX005 (ip), vehicle: Klucel (hydroxypropylcellulose) (HPC)) was 38 % of control and 66 % of control and the T/C (dose: 80.0 mg/kg/injection, schedule: Q07DX005 (ip), vehicle: Klucel (hydroxypropylcellulose) (HPC)) was 24 % of control and 70 % of control.
With `Cc1c2cc(Cl)c3ccccc3c2c[n+]2ccccc12` the T/C [6] was 54 % of control and 87 % of control and the T/C [7] was 13 % of control and 68 % of control.
For `N=C(N)c1ccc(/C=C/c2ccc(C(=N)N)cc2O)cc1`, the T/C (dose: 6.25 mg/kg/injection, schedule: Q07DX005 (ip), vehicle: water) was 62 % of control and 104 % of control, the T/C (dose: 25.0 mg/kg/injection, schedule: Q07DX005 (ip), vehicle: water) was 70 % of control and 106 % of control and the T/C [9] was 57 % of control and 108 % of control. For the same compound, the T/C [10] was 44 % of control and 91 % of control.
`COC(=O)C(Cl)(Cl)N=Nc1c(Cl)cc(Cl)c(C)c1Cl` was tested, and the T/C [8] was 47 % of control and 213 % of control, the T/C [5] was 100 % of control and 154 % of control and the T/C [11] was 66 % of control and 121 % of control.
For `Ic1ncnc2c1ncn2C1CCCO1` (stereo not drawn), the T/C [1] was 46 % of control and 78 % of control, the T/C [2] was 31 % of control and 113 % of control and the T/C [3] was 22 % of control and 61 % of control.
For `CC(=O)OCC1OC(OC(C)=O)C(NC(=O)N(CCCl)N=O)C(OC(C)=O)C1OC(C)=O` (stereo not drawn), the T/C (dose: 6.0 mg/kg/injection, schedule: Q07DX005 (ip), vehicle: Klucel (hydroxypropylcellulose) (HPC)) was 19 % of control, 33 % of control, 45 % of control and the T/C (dose: 12.0 mg/kg/injection, schedule: Q07DX005 (ip), vehicle: Klucel (hydroxypropylcellulose) (HPC)) was 18 % of control, 50 % of control, 62 % of control.
In the case of `CC(=O)c1cccc(NC2C(N)C(NC(=O)N(C)C)(C(C)O)C(C)(O)C2(O)COC(=O)c2c(C)cccc2O)c1` (stereo not drawn), the T/C (dose: 0.9 mg/kg/injection, schedule: Q07DX005 (ip), vehicle: saline with Tween-80) is reported as 44 % of control and 73 % of control.
With `CN(C)CC(Cl)CCl` (stereo not drawn) the T/C [12] was 120 % of control and 165 % of control and the T/C [13] was 86 % of control and 112 % of control.
With `Cc1c2oc3c(C)ccc(C(=O)N[C@@H]4C(=O)N[C@H](C(C)C)C(=O)N5CCC[C@H]5C(=O)N(C)CC(=O)N(C)[C@@H](C(C)C)C(=O)O[C@H]4C)c3nc-2c(C(=O)N[C@@H]2C(=O)N[C@H](C(C)C)C(=O)N3CCC[C@H]3C(=O)N(C)CC(=O)N(C)[C@@H](C(C)C)C(=O)O[C@H]2C)c(N)c1=O` (I: [aThr][dV]P[Sar][NMeV] / II: [aThr][dV]P[Sar][NMeV]; ester I:1-I:C, II:1-II:C; linker I:N-II:N via Actinocin(9to1)) the T/C (dose: 0.07 mg/kg/injection, schedule: Q07DX005 (ip), vehicle: saline) was 52 % of control and 106 % of control.
`Cc1c2oc3c(C)ccc(C(=O)NC4C(=O)NC(C(C)C)C(=O)N5CCCC5C(=O)N(C)CC(=O)N(C)C(C(C)C)C(=O)OC4C)c3nc-2c(C(=O)NC2C(=O)NC(C(C)C)C(=O)N3CCCC3C(=O)N(C)CC(=O)N(C)C(C(C)C)C(=O)OC2C)c(N)c1=O` (stereo not drawn) (I: TVP[Sar][NMeV] / II: TVP[Sar][NMeV]; ester I:1-I:C, II:1-II:C; linker I:N-II:N via Actinocin(9to1); configuration not given here) was tested, and the T/C (dose: 0.25 mg/kg/injection, schedule: Q07DX005 (ip), vehicle: saline) was 24 % of control and 76 % of control.
`O=c1[nH]c(=O)n(C2CC(O)C(CO)O2)cc1I` (stereo not drawn) was tested, and the T/C [11] was 32 % of control and 66 % of control.
`O=[N+]([O-])O.[Ga]` was tested, and the T/C (dose: 50.0 mg/kg/injection, schedule: Q04DX005 (ip), vehicle: saline) was 107 % of control and 175 % of control, the T/C [12] was 89 % of control and 184 % of control and the T/C [13] was 63 % of control and 98 % of control.
In the case of `Cc1cc2nc3c(=O)[nH]c(=O)nc-3n(CC(O)C(O)C(O)C(O)CO)c2cc1C` (stereo not drawn), the T/C (dose: 100.0 mg/kg/injection, schedule: Q07DX005 (ip), vehicle: suspension in saline) is reported as 17 % of control and 112 % of control and the T/C (dose: 800.0 mg/kg/injection, schedule: Q07DX005 (ip), vehicle: suspension in saline) is reported as 44 % of control and 104 % of control.
For `CC[C@H](CC[C@@H](C)C1CC[C@H]2[C@@H]3CC=C4C[C@@H](OP(=O)(N5CC5)N5CC5)CC[C@]4(C)[C@H]3CC[C@]12C)C(C)C` (stereo partly drawn), the T/C [8] was 33 % of control and 188 % of control, the T/C [6] was 35 % of control and 183 % of control and the T/C [11] was 51 % of control and 162 % of control.
With `O=S(=O)(c1ccccc1)N1CN2CCN(C2)C1` the T/C [8] was 64 % of control and 115 % of control, the T/C [5] was 40 % of control and 109 % of control and the T/C [6] was 48 % of control and 105 % of control. The T/C [11] was 44 % of control and 78 % of control.
With `O=[N+]([O-])O.O=[N+]([O-])O.[NH-]C1CCCCC1[NH-].[Pt+2]` (stereo not drawn) the T/C (dose: 1.0 mg/kg/injection, schedule: Q07DX005 (ip), vehicle: dextrose) was 65 % of control and 104 % of control.
In the case of `CC1=C(/C=C/C(C)=C/C=C/C(C)=C/C(=O)O)C(C)(C)CCC1`, the T/C (dose: 32.0 mg/kg/injection, schedule: Q07DX005 (ip), vehicle: saline with Tween-80) is reported as 49 % of control and 110 % of control and the T/C (dose: 128.0 mg/kg/injection, schedule: Q07DX005 (ip), vehicle: saline with Tween-80) is reported as 42 % of control and 110 % of control.
`Nc1nc(F)nc2c1ncn2C1OC(COP(=O)(O)O)C(O)C1O` (stereo not drawn) was tested, and the T/C [12] was 79 % of control and 105 % of control and the T/C (dose: 200.0 mg/kg/injection, schedule: Q07DX005 (ip), vehicle: saline) was 50 % of control and 82 % of control.
For `O=C(Nc1nncs1)c1ccncc1`, the T/C [5] was 63 % of control and 165 % of control, the T/C [6] was 119 % of control and 160 % of control and the T/C [7] was 43 % of control and 165 % of control. For the same compound, the T/C [11] was 43 % of control and 93 % of control.
`COC1C(O)CC(OC2CC(Oc3cc4cc5c(c(O)c4c(O)c3C)C(=O)[C@@H](OC3CC(OC4CC(OC6CC(C)(O)C(OC(C)=O)C(C)O6)C(O)C(C)O4)C(O)C(C)O3)[C@H]([C@H](OC)C(=O)[C@@H](O)[C@@H](C)O)C5)OC(C)C2OC(C)=O)OC1C` (stereo partly drawn) was tested, and the T/C (dose: 0.18 mg/kg/injection, schedule: Q07DX005 (ip), vehicle: saline) was 44 % of control and 115 % of control.
In the case of `O=C(O)CSc1nc(-c2ccccc2)c(-c2ccccc2)n1-c1ccccn1`, the T/C [9] is reported as 89 % of control and 186 % of control and the T/C [10] is reported as 29 % of control and 74 % of control.
